# Results taken from the supplement of paper PMC3334620.
# In all, about 33,000 sequences were measured (“E-score (-0.5 to 0.5)”: median about -0.035, highest 2% from about 0.35 on). This is one part of the list.
# Target: T1, Pdr3 (UniProt P33200)
# T1 sequence: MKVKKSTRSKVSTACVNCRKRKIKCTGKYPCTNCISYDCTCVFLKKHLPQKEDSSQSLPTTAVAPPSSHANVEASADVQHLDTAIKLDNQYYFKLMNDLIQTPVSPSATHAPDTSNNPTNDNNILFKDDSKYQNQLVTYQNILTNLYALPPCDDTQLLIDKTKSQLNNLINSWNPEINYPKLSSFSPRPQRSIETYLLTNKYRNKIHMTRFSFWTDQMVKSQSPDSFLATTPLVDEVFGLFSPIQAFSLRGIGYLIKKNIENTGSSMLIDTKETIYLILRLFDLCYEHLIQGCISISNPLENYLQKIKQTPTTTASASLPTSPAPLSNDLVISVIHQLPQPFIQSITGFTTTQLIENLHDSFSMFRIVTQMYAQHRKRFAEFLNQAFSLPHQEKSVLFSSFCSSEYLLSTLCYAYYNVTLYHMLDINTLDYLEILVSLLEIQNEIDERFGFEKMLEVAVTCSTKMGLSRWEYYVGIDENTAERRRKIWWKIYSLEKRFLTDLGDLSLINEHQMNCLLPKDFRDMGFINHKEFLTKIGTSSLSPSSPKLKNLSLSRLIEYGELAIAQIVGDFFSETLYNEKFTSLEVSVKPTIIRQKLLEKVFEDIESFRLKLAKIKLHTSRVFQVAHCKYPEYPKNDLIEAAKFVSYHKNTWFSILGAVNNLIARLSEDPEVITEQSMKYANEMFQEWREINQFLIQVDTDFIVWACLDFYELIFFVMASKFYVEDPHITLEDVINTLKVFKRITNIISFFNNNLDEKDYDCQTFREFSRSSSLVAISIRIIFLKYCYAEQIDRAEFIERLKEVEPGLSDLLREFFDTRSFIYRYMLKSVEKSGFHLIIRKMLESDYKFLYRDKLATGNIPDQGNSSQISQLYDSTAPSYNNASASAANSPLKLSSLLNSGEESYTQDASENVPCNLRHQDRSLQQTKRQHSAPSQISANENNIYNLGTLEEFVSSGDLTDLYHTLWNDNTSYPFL
# Assay: PBM E-score (8-mer binding enrichment) (E-score (-0.5 to 0.5)); higher = stronger / more preferred TF binding; most listed sequences are background and not binding sites
# Conditions: protein concentration: 200 nM; construct: GST-full length
# How it was run: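 Masliner-normalised scans of fluorescent anti-GST signal were the basis for scoring. That signal came from GST-tagged yeast transcription factors applied at about 100-200 nM to double-stranded universal all-10-mer Agilent arrays on fresh or once-stripped slides. Each ungapped eight-base word, pooled with its reverse complement, received an E-score from the Universal PBM Analysis Suite.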
row,Sequence,PBM E-score
1,GAAGGCAA,0.177
2,CGTAGTAA,0.0211
3,AATCCAGG,0.0373
4,AATGCGAT,-0.0401
5,ACAGACGA,-0.048
6,GAGTGGAA,-0.124
7,AGGGCCAA,-0.208
8,ACGTCAGC,0.0284
9,AGCCAATC,-0.012
10,GCTATGAC,-0.078
11,CCGTCACG,0.238
12,CTGGTCGA,-0.104
13,GATAGTTA,0.064
14,AATTCGAA,-0.148
15,CTAGCTCA,-0.218
16,CATGGATC,0.0469
17,AGTATGCC,-0.0201
18,AGGAGCAA,-0.123
19,CACGTGAG,-0.13
20,GCCCGATA,-0.0521
21,CCGCAAAG,0.187
22,ACGGTTTC,0.0261
23,ACGTCTCA,-0.109
24,GCACATAC,-0.15
25,CACTATTC,0.114

row,Sequence,PBM E-score
1,AAGGATGA,-0.2
2,CATGCACG,-0.125
3,AAGTTCGG,0.203
4,CTGGACCA,-0.0399
5,AAGAGATG,-0.115
6,TGTCAGAA,-0.24
7,GCTACAAA,-0.0558
8,ACGTTGAA,0.0256
9,ATGCAACC,0.143
10,AGACGTTA,-0.314
11,GACCTTGA,-0.278
12,AGGTAGGG,-0.232
13,AAACATCA,-0.114
14,AGAATTCC,0.201
15,GGTGCCAA,-0.144
16,ACACTTGG,-0.125
17,ATCGGCTC,0.101
18,ACTTCGAG,-0.0109
19,CGCCGCTC,0.302
20,ATGATATC,0.0293
21,ATGAGCCA,-0.106
22,CCCCACGC,-0.138
23,CAGGGATC,-0.144
24,GACAAATA,0.0813
25,AGGACTCG,-0.202

row,Sequence,PBM E-score
1,TGATTGCA,-0.065
2,ACCCGCAC,0.226
3,CAGACGGG,0.103
4,AGGATTGC,-0.127
5,AAATCCCG,0.326
6,CGAGAATC,0.0591
7,ATCGACCA,-0.176
8,ACACAATC,-0.0293
9,CCCGCCTA,0.146
10,GGATTAAC,-0.0123
11,CGTCTAGC,-0.175
12,AATAAGAC,-0.334
13,AAGCCCGA,-0.033
14,GTGAGTGA,-0.0672
15,ACCCTAAC,-0.102
16,AATGATAG,0.184
17,ATCGTTTG,0.0176
18,GCCAAAGC,-0.197
19,GACTACAC,-0.142
20,ATCGCAGA,-0.213
21,ACTAAGCG,-0.136
22,CACGGCAA,0.177
23,CACAGGGC,-0.155
24,AACATCAG,-0.137
25,TACGGAAA,0.402

row,Sequence,PBM E-score
1,CGTGCCCA,0.0711
2,AAATGGTC,0.111
3,TACCGACA,0.134
4,ATCTCAGC,0.124
5,AAAGCCAT,0.0182
6,CGCATTCC,0.16
7,GGTCAGGA,-0.051
8,GGATAGCA,0.059
9,CTTCCTAC,-0.364
10,CTGTTAGA,-0.167
11,GGGTCTAC,0.0473
12,CACGGATC,0.395
13,ACCTAAAT,-0.00299
14,CTAACTTA,-0.0639
15,GAACCAGC,0.0502
16,ATAGTGTG,0.029
17,GCACCTGC,0.00979
18,CCAGGTCG,-0.161
19,AAGGTAGG,0.0215
20,GAGGAAAA,0.0256
21,CGATCATA,-0.0347
22,AACGGTCT,0.0116
23,AAACACTG,0.0276
24,CAGGTCAA,-0.159
25,GGACGCCC,0.1

row,Sequence,PBM E-score
1,TGGTGAAA,-0.109
2,CAGGCAAG,-0.166
3,CTGCAGCA,-0.0422
4,CGCCGCCC,0.21
5,CTTCAGTA,-0.00641
6,TAAAACCA,-0.273
7,ATCTGCGC,-0.0412
8,ACGCGCTA,-0.0535
9,GCATGCAA,0.0539
10,CCACTCTC,-0.0278
11,CCGACCAA,0.177
12,GGGCAGCA,-0.1
13,AGGCTCGA,-0.16
14,AGCCCATC,-0.0509
15,ACGACACT,-0.177
16,ACAGTCGC,-0.277
17,ACGAGTGG,-0.0946
18,AGTGATTG,-0.0596
19,CCGGTGGA,0.254
20,ATTCTAGA,-0.169
21,ACGTCGTA,-0.215
22,GCAAGACA,-0.173
23,GTTAATAA,0.136
24,CTGTCGAC,-0.154
25,CCACGGCG,0.182

row,Sequence,PBM E-score
1,TGGCCCAA,-0.0945
2,GCACCTCA,0.00746
3,CATCTTAA,-0.238
4,CGAGGTAG,0.0204
5,AACCTGAG,-0.0502
6,CTCAACGC,-0.146
7,AAATGACG,-0.0199
8,CGCTTCAG,-0.0104
9,CATGCGGA,0.209
10,CCAGGATA,0.0385
11,AGTGCACC,0.0331
12,ACACACAG,0.036
13,ACGTTATA,-0.0803
14,ATGATGAG,-0.121
15,CGCACCCA,-0.0255
16,CAGCACGC,0.0491
17,GTCTACTA,-0.0523
18,ACAACGGC,0.0581
19,ACAACCCA,-0.0147
20,AGTGCATC,-0.047
21,AAGGGAGG,-0.00086
22,AAGGCGGA,0.225
23,CGTCGACG,0.278
24,GTAGTTGA,0.0287
25,CATTAGTC,-0.0184

row,Sequence,PBM E-score
1,ACCGTTGG,0.0171
2,ACATGAGG,-0.0733
3,CTTTTACA,-0.0518
4,ATCCCACA,-0.102
5,ACGGGGTC,0.23
6,ATTCAGCC,-0.0375
7,ACGGCGCA,0.19
8,CGAAAGAC,-0.0528
9,GGTGTAAC,0.00381
10,GAAAGAGC,-0.0788
11,CCCAAACG,-0.103
12,ATGCACGG,0.182
13,CCCACGGC,0.0935
14,GCAGGCCA,0.0751
15,GAATATGA,0.0903
16,AGGGTCTA,-0.182
17,TACCGCGA,0.169
18,GTGAAAGA,-0.0383
19,AGTAGTTG,0.0866
20,CTGACCTC,-0.0557
21,AAATCGTG,0.0785
22,GATGTCCA,0.058
